Measured values as given in patent publication EP4674438A1 (Taiho Pharmaceutical Co., Ltd., dated 2024).
Substitutions are numbered along the chain they refer to.

T1: human CD138 protein (human, UniProt P18827 23-310)
T1 sequence: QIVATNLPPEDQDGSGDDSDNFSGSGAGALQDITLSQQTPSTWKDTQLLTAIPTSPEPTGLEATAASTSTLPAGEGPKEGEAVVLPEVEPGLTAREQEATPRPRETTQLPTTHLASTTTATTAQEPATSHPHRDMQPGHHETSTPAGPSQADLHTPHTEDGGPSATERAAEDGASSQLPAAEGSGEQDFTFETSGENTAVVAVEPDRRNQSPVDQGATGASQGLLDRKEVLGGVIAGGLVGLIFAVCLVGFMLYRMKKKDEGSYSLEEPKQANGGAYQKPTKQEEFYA

B1: Antibody-drug conjugate 14 (ADC14) (antibody, human IgG1, kappa)
heavy: QVQLVQSGAEVKKPGSSVKVSCKASGYTFSNYWIEWVRQAPGQGLEWIGEILPGTGRTIYNEKFKGRVTFTADESTSTAYMELSSLRSEDTAVYYCARRDYYGNFYYAMDYWGQGTLVTVSS[human IgG1 constant region not spelt out]
light: DIQMTQSPSSLSASVGDRVTITCSASQGINNYLNWYQQKPGKAPKLLIYYTSTLQSGVPSRFSGSGSGTDYTLTISSLQPEDFATYYCQQYSKLPRTFGGGTKVEIKRTVAAPSVFIFPPSDEQLKSGTASVVCLLNNFYPREAKVQWKVDNALQSGNSQESVTEQDSKDSTYSLSSTLTLSKADYEKHKVYACEVTHQGLSSPVTKSFNRGEC
modifications: MC-VC-PAB-MMAE on cysteine sulfhydryls after TCEP reduction of hinge disulfide bonds; positions not given; DAR 7.9
B2: Antibody-drug conjugate 8 (ADC8) (antibody, human IgG1, kappa)
heavy: QVQLVQSGAEVKKPGSSVKVSCKASGYTFSNYWIEWVRQAPGQGLEWIGEILPGTGRTIYNEKFKGRATFTADISTSTAYMELSSLRSEDTAVYYCARRDYYGNFYYAMDYWGQGTLVTVSSASTKGPSVFPLAPSSKSTSGGTAALGCLVKDYFPEPVTVSWNSGALTSGVHTFPAVLQSSGLYSLSSVVTVPSSSLGTQTYICNVNHKPSNTKVDKKV[human IgG1 Fc with changes not spelt out]
light: B1 light
modifications: MC-VC-PAB-MMAE on cysteine sulfhydryls after TCEP reduction of hinge disulfide bonds; positions not given; DAR 7.9
B3: Antibody-drug conjugate 11 (ADC11) (antibody, human IgG1, kappa)
heavy: QVQLVQSGAEVKKPGSSVKVSCKASGYTFSNYWIEWVRQAPGQGLEWIGEILPGTGRTIYNEKFKGRVTFTADESTSTAYMELSSLRSEDTAVYYCARRDYYGNFYYAMDYWGQGTLVTVSSASTKGPSVFPLAPSSKSTSGGTAALGCLVKDYFPEPVTVSWNSGALTSGVHTFPAVLQSSGLYSLSSVVTVPSSSLGTQTYICNVNHKPSNTKVDKKV[human IgG1 Fc with changes not spelt out]
light: B1 light
modifications: MC-VC-PAB-MMAE on cysteine sulfhydryls after TCEP reduction of hinge disulfide bonds; positions not given; DAR 7.8
B4: Antibody-drug conjugate 12 (ADC12) (antibody, human IgG1, kappa)
heavy: B1 heavy with V68A, E74I
light: B1 light
modifications: MC-VC-PAB-MMAE on cysteine sulfhydryls after TCEP reduction of hinge disulfide bonds; positions not given; DAR 7.9
B5: Antibody-drug conjugate 13 (ADC13) (antibody, human IgG1, kappa)
heavy: B1 heavy with E74I
light: B1 light
modifications: MC-VC-PAB-MMAE on cysteine sulfhydryls after TCEP reduction of hinge disulfide bonds; positions not given; DAR 7.9
B6: Antibody-drug conjugate 9 (ADC9) (antibody, human IgG1, kappa)
heavy: QVQLVQSGAEVKKPGSSVKVSCKASGYTFSNYWIEWVRQAPGQGLEWIGEILPGTGRTIYNEKFKGRVTFTADISTSTAYMELSSLRSEDTAVYYCARRDYYGNFYYAMDYWGQGTLVTVSSASTKGPSVFPLAPSSKSTSGGTAALGCLVKDYFPEPVTVSWNSGALTSGVHTFPAVLQSSGLYSLSSVVTVPSSSLGTQTYICNVNHKPSNTKVDKKV[human IgG1 Fc with changes not spelt out]
light: B1 light
modifications: MC-VC-PAB-MMAE on cysteine sulfhydryls after TCEP reduction of hinge disulfide bonds; positions not given; DAR 7.8
B7: Antibody-drug conjugate 16 (ADC16) (antibody, human IgG1, kappa)
heavy: B1 heavy with V68A, E74I
light: B1 light
modifications: MC-VC-PAB-MMAE after TCEP reduction; positions not given; average number of drugs bound to an antibody molecule 3.78
B8: Antibody-drug conjugate 17 (ADC17) (antibody, human IgG1, kappa)
heavy: B1 heavy with V68A, E74I
light: B1 light
modifications: MC-VC-PAB-MMAE after TCEP reduction; positions not given; average number of drugs bound to an antibody molecule 7.91
B9: Antibody 6 (antibody, human IgG1, kappa)
heavy: QVQLVQSGAEVKKPGSSVKVSCKASGYTFSNYWIEWVRQAPGQGLEWIGEILPGTGRTIYNEKFKGRVTFTADESTSTAYMELSSLRSEDTAVYYCARRDYYGNFYYAMDYWGQGTLVTVSSASTKGPSVFPLAPSSKSTSGGTAALGCLVKDYFPEPVTVSWNSGALTSGVHTFPAVLQSSGLYSLSSVVTVPSSSLGTQTYICNVNHKPSNTKVDKKV[human IgG1 Fc with changes not spelt out]
light: B1 light
notes: Humanized, human IgG1 constant region; also called anti-CD138 antibody
B10: Antibody 3 (antibody, human IgG1, kappa)
heavy: QVQLVQSGAEVKKPGSSVKVSCKASGYTFSNYWIEWVRQAPGQGLEWIGEILPGTGRTIYNEKFKGRATFTADISTSTAYMELSSLRSEDTAVYYCARRDYYGNFYYAMDYWGQGTLVTVSSASTKGPSVFPLAPSSKSTSGGTAALGCLVKDYFPEPVTVSWNSGALTSGVHTFPAVLQSSGLYSLSSVVTVPSSSLGTQTYICNVNHKPSNTKVDKKV[human IgG1 Fc with changes not spelt out]
light: B1 light
notes: as for B9
B11: Antibody 4 (antibody, human IgG1, kappa)
heavy: QVQLVQSGAEVKKPGSSVKVSCKASGYTFSNYWIEWVRQAPGQGLEWIGEILPGTGRTIYNEKFKGRVTFTADISTSTAYMELSSLRSEDTAVYYCARRDYYGNFYYAMDYWGQGTLVTVSSASTKGPSVFPLAPSSKSTSGGTAALGCLVKDYFPEPVTVSWNSGALTSGVHTFPAVLQSSGLYSLSSVVTVPSSSLGTQTYICNVNHKPSNTKVDKKV[human IgG1 Fc with changes not spelt out]
light: B1 light
notes: as for B9

Each binder was assayed against T1, human CD138 protein (assay: cell-based or functional assay).

| Binder | IC50 (ng/ml), cytotoxicity, Capan-1 (CD138-positive), CellTiter-Glo 2.0 [ng/mL] |
| --- | --- |
| B1 | 57 |
| B2 | 17 |
| B3 | 31 |
| B4 | 21 |
| B5 | 40 |
| B6 | 18 |

Target: T1, human CD138 protein
Assay: cell-based or functional assay
Remark: another data set of the same source

| Binder | IC50 (ng/ml), cytotoxicity, BxPC-3 (CD138-positive), CellTiter-Glo 2.0 [ng/mL] |
| --- | --- |
| B7 | 40 |
| B8 | 9 |

The binders below were run against T1, human CD138 protein (assay: flow cytometry on AsPC-1 cells (legend of Figure 1)).

| binding result | Binder |
| --- | --- |
| binds | B9 |
| binds | B10 |
| binds | B11 |
